Measurements reported in the supplement of paper PMC8728848.
The other results are listed elsewhere or left out.

How the values were obtained:
Assay in all cases: glycan array binding signal (z-score within array); higher = stronger binding
Details in all cases: glycan notation: IUPAC condensed, linker removed
[1] = target: Fuc(a1-2)[GalNAc(a1-3)]Gal
Method in brief: (§1)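 Glycan array binding is given as a within-array Z-score, which can be read as non-binding when negative. The arrays, 3228 of them, came from the Consortium for Functional Glycomics database and were retained only where the protein sequence was available. Z-scores were averaged across arrays of the same protein sequence at different concentrations or buffers and across linkers.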

[2] = target: Fuc(a1-2)[GalNAc(a1-3)]Gal(b1-3)GalNAc(a1-3)[Fuc(a1-2)]Gal(b1-4)GlcNAc
Method in brief: as §1

[3] = target: Fuc(a1-2)[GalNAc(a1-3)]Gal(b1-3)GalNAc(b1-3)Gal(a1-4)Gal(b1-4)Glc
Method in brief: as §1

[4] = target: Fuc(a1-2)[GalNAc(a1-3)]Gal(b1-3)GlcNAc
Method in brief: as §1

[5] = target: Fuc(a1-2)[GalNAc(a1-3)]Gal(b1-3)GlcNAc(b1-2)Man(a1-3)[Fuc(a1-2)[GalNAc(a1-3)]Gal(b1-3)GlcNAc(b1-2)Man(a1-6)]Man(b1-4)GlcNAc(b1-4)GlcNAc
Method in brief: as §1

[6] = target: Fuc(a1-2)[GalNAc(a1-3)]Gal(b1-3)GlcNAc(b1-2)Man(a1-3)[Fuc(a1-2)[GalNAc(a1-3)]Gal(b1-3)GlcNAc(b1-2)Man(a1-6)]Man(b1-4)GlcNAc(b1-4)[Fuc(a1-6)]GlcNAc
Method in brief: as §1

[7] = target: Fuc(a1-2)[GalNAc(a1-3)]Gal(b1-3)GlcNAc(b1-3)GalNAc
Method in brief: as §1

[8] = target: Fuc(a1-2)[GalNAc(a1-3)]Gal(b1-3)GlcNAc(b1-6)GalNAc
Method in brief: as §1

[9] = target: Fuc(a1-2)[GalNAc(a1-3)]Gal(b1-4)Glc
Method in brief: as §1

[10] = target: Fuc(a1-2)[GalNAc(a1-3)]Gal(b1-4)GlcNAc
Method in brief: as §1

[11] = target: Fuc(a1-2)[GalNAc(a1-3)]Gal(b1-4)GlcNAc(b1-2)Man
Method in brief: as §1

[12] = target: Fuc(a1-2)[GalNAc(a1-3)]Gal(b1-4)GlcNAc(b1-2)Man(a1-3)[Fuc(a1-2)[GalNAc(a1-3)]Gal(b1-4)GlcNAc(b1-2)Man(a1-6)]Man(b1-4)GlcNAc(b1-4)GlcNAc
Method in brief: as §1

[13] = target: Fuc(a1-2)[GalNAc(a1-3)]Gal(b1-4)GlcNAc(b1-2)Man(a1-3)[Fuc(a1-2)[GalNAc(a1-3)]Gal(b1-4)GlcNAc(b1-2)Man(a1-6)]Man(b1-4)GlcNAc(b1-4)[Fuc(a1-6)]GlcNAc
Method in brief: as §1

[14] = target: Fuc(a1-2)[GalNAc(a1-3)]Gal(b1-4)GlcNAc(b1-3)Gal(b1-4)GlcNAc
Method in brief: as §1

[15] = target: Fuc(a1-2)[GalNAc(a1-3)]Gal(b1-4)GlcNAc(b1-3)Gal(b1-4)GlcNAc(b1-3)Gal(b1-4)GlcNAc
Method in brief: as §1

[16] = target: Fuc(a1-2)[GalNAc(a1-3)]Gal(b1-4)GlcNAc(b1-3)GalNAc
Method in brief: as §1

[17] = target: Fuc(a1-2)[GalNAc(a1-3)]Gal(b1-4)GlcNAc(b1-3)[Fuc(a1-2)[GalNAc(a1-3)]Gal(b1-4)GlcNAc(b1-6)]GalNAc
Method in brief: as §1

[18] = target: Fuc(a1-2)[GalNAc(a1-3)]Gal(b1-4)GlcNAc(b1-6)GalNAc
Method in brief: as §1

[19] = target: Fuc(a1-2)[GalNAc(a1-3)]Gal(b1-4)[Fuc(a1-3)]GlcNAc
Method in brief: as §1

[20] = target: Fuc(a1-2)[GalNAc(a1-3)]Gal(b1-4)[Fuc(a1-3)]GlcNAc(b1-3)GalNAc
Method in brief: as §1

[21] = target: Fuc(a1-2)[GalNAc(a1-4)]Gal(b1-4)GlcNAc
Method in brief: as §1

[22] = target: Fuc(a1-2)[GalNAc(b1-3)]Gal
Method in brief: as §1

[23] = target: Fuc(a1-3)GlcNAc
Method in brief: as §1

[24] = target: Fuc(a1-3)[Gal(b1-4)]Glc6S
Method in brief: as §1

[25] = target: Fuc(a1-3)[Gal(b1-4)]GlcNAc
Method in brief: as §1

[26] = target: Fuc(a1-3)[Gal(b1-4)]GlcNAc(b1-2)Man
Method in brief: as §1

[27] = target: Fuc(a1-3)[Gal(b1-4)]GlcNAc(b1-2)Man(a1-3)[Fuc(a1-3)[Gal(b1-4)]GlcNAc(b1-2)Man(a1-6)]Man(b1-4)GlcNAc(b1-4)GlcNAc
Method in brief: as §1

[28] = target: Fuc(a1-3)[Gal(b1-4)]GlcNAc(b1-2)Man(a1-3)[Fuc(a1-3)[Gal(b1-4)]GlcNAc(b1-2)Man(a1-6)]Man(b1-4)GlcNAc(b1-4)[Fuc(a1-6)]GlcNAc
Method in brief: as §1

[29] = target: Fuc(a1-3)[Gal(b1-4)]GlcNAc(b1-3)Gal(b1-3)[Fuc(a1-4)]GlcNAc
Method in brief: as §1

[30] = target: Fuc(a1-3)[Gal(b1-4)]GlcNAc(b1-3)Gal(b1-4)[Fuc(a1-3)]GlcNAc
Method in brief: as §1

[31] = target: Fuc(a1-3)[Gal(b1-4)]GlcNAc(b1-3)Gal(b1-4)[Fuc(a1-3)]GlcNAc(b1-3)Gal(b1-4)[Fuc(a1-3)]GlcNAc
Method in brief: as §1

[32] = target: Fuc(a1-3)[Gal(b1-4)]GlcNAc(b1-3)GalNAc
Method in brief: as §1

[33] = target: Fuc(a1-3)[Gal(b1-4)]GlcNAc(b1-6)GalNAc
Method in brief: as §1

[34] = target: Fuc(a1-3)[Gal(b1-4)]GlcNAc(b1-6)[Gal(b1-3)GlcNAc(b1-3)]Gal(b1-4)Glc
Method in brief: as §1

[35] = target: Fuc(a1-3)[Gal(b1-4)]GlcNAc6S
Method in brief: as §1

[36] = target: Fuc(a1-3)[Gal3S(b1-4)]Glc
Method in brief: as §1

[37] = target: Fuc(a1-3)[Gal3S(b1-4)]GlcNAc
Method in brief: as §1

[38] = target: Fuc(a1-3)[Gal3S(b1-4)]GlcNAc6S
Method in brief: as §1

B1: ACA (Amaranthus caudatus) (protein)
chain: MAGLPVIMCLKSNNNQKYLRYQSDNIQQYGLLQFSADKILDPLAQFEVEPSKTYDGLVHIKSRYTNKYLVRWSPNHYWITASANEPDENKSNWACTLFKPLYVEEGNMKKVRLLHVQLGHYTQNYTVGGSFVSYLFAESSQIDTGSKDVFHVIDWKSIFQFPKRYVTFKGNNGKYLGVITINQLPCLQFGYDNLNDPKVAHEMFVTSNGTICIKSTYMNKFWRLSTDDWILVDGNDPRETNEAAALFRSDVHDFNVISLLNMQKTWFIKRFTSGKPGFINCMNAATQNVDETAILEIIELGSNN
[1]
  glycan array binding signal (z-score): -0.401
[2]
  glycan array binding signal (z-score): -0.463
[3]
  glycan array binding signal (z-score): -0.585
[4]
  glycan array binding signal (z-score): -0.05
[5]
  glycan array binding signal (z-score): -0.352
[6]
  glycan array binding signal (z-score): -0.749
[7]
  glycan array binding signal (z-score): -0.016
[8]
  glycan array binding signal (z-score): -0.491
[9]
  glycan array binding signal (z-score): -0.187
[10]
  glycan array binding signal (z-score): -0.187
[11]
  glycan array binding signal (z-score): -0.449
[12]
  glycan array binding signal (z-score): 0.132
[13]
  glycan array binding signal (z-score): -0.025
[14]
  glycan array binding signal (z-score): -0.525
[15]
  glycan array binding signal (z-score): 0.467
[16]
  glycan array binding signal (z-score): -0.302
[17]
  glycan array binding signal (z-score): -0.435
[18]
  glycan array binding signal (z-score): -0.116
[19]
  glycan array binding signal (z-score): 0.474
[20]
  glycan array binding signal (z-score): 1.38
[21]
  glycan array binding signal (z-score): -0.274
[22]
  glycan array binding signal (z-score): 0.345
[23]
  glycan array binding signal (z-score): -0.103
[24]
  glycan array binding signal (z-score): 0.058
[25]
  glycan array binding signal (z-score): -0.185
[26]
  glycan array binding signal (z-score): 0.246
[27]
  glycan array binding signal (z-score): -0.387
[28]
  glycan array binding signal (z-score): 0.615
[29]
  glycan array binding signal (z-score): 0.001
[30]
  glycan array binding signal (z-score): -0.135
[31]
  glycan array binding signal (z-score): -0.379
[32]
  glycan array binding signal (z-score): -0.103
[33]
  glycan array binding signal (z-score): 0.307
[34]
  glycan array binding signal (z-score): 0.14
[35]
  glycan array binding signal (z-score): 0.455
[36]
  glycan array binding signal (z-score): -0.145
[37]
  glycan array binding signal (z-score): 0.003
[38]
  glycan array binding signal (z-score): -0.303
